Changes are numbered by the printed parent chain; changes in the protein carry UniProt numbers. This is one part of the list.

The chains are these.
T1: RBFOX1 RRM RbFoxmut (Fox-RRM*) (Homo sapiens, UniProt Q9NWB1 109-208, R118D;E147R;N151S;E152T)
T1 sequence: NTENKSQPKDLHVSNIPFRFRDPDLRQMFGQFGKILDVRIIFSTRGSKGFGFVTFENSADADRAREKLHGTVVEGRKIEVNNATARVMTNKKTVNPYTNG

B1: UAAACUG (DNA:RNA)
RNA: GGGAGACCGGAAUUCAGAUUGUCCUAAACUGUUAAAUCCCGUCGUAGCCACCA
DNA 1: CAATCTGAATTCCGGTCTCCC
DNA 2: TGGTGGCTACGACGGGATT
B2: AGCUACG (DNA:RNA)
RNA: B1 RNA with U25A, A26G, A27C, A28U, C29A, U30C
DNA 1: CAATCTGAATTCCGGTCTCCC
DNA 2: TGGTGGCTACGACGGGATT
B3: CUUGUGC (DNA:RNA)
RNA: GGGAGACCGGAAUUCAGAUUGUCCCUUGUGCUUAAAUCCCGUCGUAGCCACCA
DNA 1: CAATCTGAATTCCGGTCTCCC
DNA 2: TGGTGGCTACGACGGGATT
B4: CCGAGAG (DNA:RNA)
RNA: B1 RNA with U25C, A26C, A27G, C29G, U30A
DNA 1: CAATCTGAATTCCGGTCTCCC
DNA 2: TGGTGGCTACGACGGGATT
B5: AUGAAGC (DNA:RNA)
RNA: B3 RNA with C25A, U27G, G28A, U29A
DNA 1: CAATCTGAATTCCGGTCTCCC
DNA 2: TGGTGGCTACGACGGGATT
B6: AAACGUC (DNA:RNA)
RNA: B1 RNA with U25A, A28C, C29G, G31C
DNA 1: CAATCTGAATTCCGGTCTCCC
DNA 2: TGGTGGCTACGACGGGATT
B7: GAUGACA (DNA:RNA)
RNA: B3 RNA with C25G, U26A, U29A, G30C, C31A
DNA 1: CAATCTGAATTCCGGTCTCCC
DNA 2: TGGTGGCTACGACGGGATT
B8: AGCAAGU (DNA:RNA)
RNA: B3 RNA with C25A, U26G, U27C, G28A, U29A, C31U
DNA 1: CAATCTGAATTCCGGTCTCCC
DNA 2: TGGTGGCTACGACGGGATT
B9: UGUACUA (DNA:RNA)
RNA: B1 RNA with A26G, A27U, G31A
DNA 1: CAATCTGAATTCCGGTCTCCC
DNA 2: TGGTGGCTACGACGGGATT
B10: GCUAGUG (DNA:RNA)
RNA: B1 RNA with U25G, A26C, A27U, C29G
DNA 1: CAATCTGAATTCCGGTCTCCC
DNA 2: TGGTGGCTACGACGGGATT
B11: AGCGUAA (DNA:RNA)
RNA: B3 RNA with C25A, U26G, U27C, G30A, C31A
DNA 1: CAATCTGAATTCCGGTCTCCC
DNA 2: TGGTGGCTACGACGGGATT
B12: UUCGAGC (DNA:RNA)
RNA: B3 RNA with C25U, U27C, U29A
DNA 1: CAATCTGAATTCCGGTCTCCC
DNA 2: TGGTGGCTACGACGGGATT
B13: AGAUCCG (DNA:RNA)
RNA: B1 RNA with U25A, A26G, A28U, U30C
DNA 1: CAATCTGAATTCCGGTCTCCC
DNA 2: TGGTGGCTACGACGGGATT
B14: GAGCUUG (DNA:RNA)
RNA: B1 RNA with U25G, A27G, A28C, C29U
DNA 1: CAATCTGAATTCCGGTCTCCC
DNA 2: TGGTGGCTACGACGGGATT
B15: GCCUAGG (DNA:RNA)
RNA: B3 RNA with C25G, U26C, U27C, G28U, U29A, C31G
DNA 1: CAATCTGAATTCCGGTCTCCC
DNA 2: TGGTGGCTACGACGGGATT
B16: UAAGAGU (DNA:RNA)
RNA: B1 RNA with A28G, C29A, U30G, G31U
DNA 1: CAATCTGAATTCCGGTCTCCC
DNA 2: TGGTGGCTACGACGGGATT
B17: GGUUCAG (DNA:RNA)
RNA: B1 RNA with U25G, A26G, A27U, A28U, U30A
DNA 1: CAATCTGAATTCCGGTCTCCC
DNA 2: TGGTGGCTACGACGGGATT
B18: GAAGCAA (DNA:RNA)
RNA: B1 RNA with U25G, A28G, U30A, G31A
DNA 1: CAATCTGAATTCCGGTCTCCC
DNA 2: TGGTGGCTACGACGGGATT
B19: AGGUUGA (DNA:RNA)
RNA: B3 RNA with C25A, U26G, U27G, G28U, C31A
DNA 1: CAATCTGAATTCCGGTCTCCC
DNA 2: TGGTGGCTACGACGGGATT
B20: UGUGAUU (DNA:RNA)
RNA: B3 RNA with C25U, U26G, U29A, G30U, C31U
DNA 1: CAATCTGAATTCCGGTCTCCC
DNA 2: TGGTGGCTACGACGGGATT
B21: CUUUGGC (DNA:RNA)
RNA: B3 RNA with G28U, U29G
DNA 1: CAATCTGAATTCCGGTCTCCC
DNA 2: TGGTGGCTACGACGGGATT
B22: GUUGCUC (DNA:RNA)
RNA: B3 RNA with C25G, U29C, G30U
DNA 1: CAATCTGAATTCCGGTCTCCC
DNA 2: TGGTGGCTACGACGGGATT
B23: GCCAAUU (DNA:RNA)
RNA: B1 RNA with U25G, A26C, A27C, C29A, G31U
DNA 1: CAATCTGAATTCCGGTCTCCC
DNA 2: TGGTGGCTACGACGGGATT
B24: UCUCUGA (DNA:RNA)
RNA: B3 RNA with C25U, U26C, G28C, C31A
DNA 1: CAATCTGAATTCCGGTCTCCC
DNA 2: TGGTGGCTACGACGGGATT
B25: UCAGGUG (DNA:RNA)
RNA: B1 RNA with A26C, A28G, C29G
DNA 1: CAATCTGAATTCCGGTCTCCC
DNA 2: TGGTGGCTACGACGGGATT
B26: ACAGAGU (DNA:RNA)
RNA: B3 RNA with C25A, U26C, U27A, U29A, C31U
DNA 1: CAATCTGAATTCCGGTCTCCC
DNA 2: TGGTGGCTACGACGGGATT
B27: AUGAAGA (DNA:RNA)
RNA: B3 RNA with C25A, U27G, G28A, U29A, C31A
DNA 1: CAATCTGAATTCCGGTCTCCC
DNA 2: TGGTGGCTACGACGGGATT
B28: CGCCCAA (DNA:RNA)
RNA: B3 RNA with U26G, U27C, G28C, U29C, G30A, C31A
DNA 1: CAATCTGAATTCCGGTCTCCC
DNA 2: TGGTGGCTACGACGGGATT
B29: CAUGAGG (DNA:RNA)
RNA: B3 RNA with U26A, U29A, C31G
DNA 1: CAATCTGAATTCCGGTCTCCC
DNA 2: TGGTGGCTACGACGGGATT
B30: CAGACUC (DNA:RNA)
RNA: B1 RNA with U25C, A27G, G31C
DNA 1: CAATCTGAATTCCGGTCTCCC
DNA 2: TGGTGGCTACGACGGGATT
B31: ACCCCCG (DNA:RNA)
RNA: B1 RNA with U25A, A26C, A27C, A28C, U30C
DNA 1: CAATCTGAATTCCGGTCTCCC
DNA 2: TGGTGGCTACGACGGGATT

The assay concerns the target T1, RBFOX1 RRM RbFoxmut (Fox-RRM*). The assay is described as follows: EMSA; HiTS-Eq, 1 nM pool, 10 min; buffer printed only for the single-RNA assays: 10 mM Tris pH 7.5, 150 mM NaCl, 3.4 mM EDTA, 0.001% NP-40, 30 C. As to conditions: tags: His6 N-terminal (pET28a); label: 5' 32P. The gist of the method: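 Purified wild-type or mutant RbFox RRM at increasing concentrations was equilibrated with 1 nM of 5′-radiolabelled RNA carrying 7 randomized nucleotides for 10 min in 50 µL. Unbound RNA was separated by 8% native PAGE and sequenced. Relative association constants came from read-count changes of each RNA species compared with the control reaction, normalised to the cognate motif.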
On the technique in general: In EMSA bound probe runs differently from free probe, usually more slowly.
On to B1, for which the binding signal was 0.0614 KA relative to UGCAUGU.
For B2 the value was 0.153 KA relative to UGCAUGU.
For B3 the value was 0.119 KA relative to UGCAUGU.
Then B4, with 0.102 KA relative to UGCAUGU; and B5, with 0.116 KA relative to UGCAUGU; and B6, with 0.0555 KA relative to UGCAUGU.
Take B7: the binding signal is 0.0578 KA relative to UGCAUGU.
For B8 the value was 0.0932 KA relative to UGCAUGU; for B9, 0.106 KA relative to UGCAUGU; for B10, 0.13 KA relative to UGCAUGU.
Then B11, with 0.129 KA relative to UGCAUGU; and B12, with 0.116 KA relative to UGCAUGU; and B13, with 0.0586 KA relative to UGCAUGU.
With B14, the binding signal was 0.253 KA relative to UGCAUGU.
Then B15, with 0.115 KA relative to UGCAUGU; and B16, with 0.0977 KA relative to UGCAUGU; and B17, with 0.131 KA relative to UGCAUGU.
Then B18, with 0.0691 KA relative to UGCAUGU.
In the case of B19, the binding signal is 0.231 KA relative to UGCAUGU.
On to B20, for which the binding signal is 0.125 KA relative to UGCAUGU.
For B21 the value was 0.118 KA relative to UGCAUGU; for B22, 0.0758 KA relative to UGCAUGU; for B23, 0.0539 KA relative to UGCAUGU.
As to B24, the binding signal is 0.074 KA relative to UGCAUGU.
Turning to B25, the binding signal is 0.122 KA relative to UGCAUGU.
Then B26, with 0.134 KA relative to UGCAUGU; and B27, with 0.122 KA relative to UGCAUGU; and B28, with 0.0759 KA relative to UGCAUGU.
Then B29, with 0.0773 KA relative to UGCAUGU; and B30, with 0.0667 KA relative to UGCAUGU; and B31, with 0.0612 KA relative to UGCAUGU.
